In all, about 390,000 compounds went through this assay and about 930 (0.24%) were called active. The inconclusive results got no clear call from the source; some entries with a clear call stand among them for comparison. Calls follow the shape of the dose curve; as a rule, active = well fitted activation curve with a large enough effect; inconclusive = small, poorly fitted or top-dose-only effect; inactive = no such curve, though single readings can be large or run the other way. Potencies beside an inconclusive call are fits to weak or partial responses and may not hold up.
Test: qHTS for Suppressors of FUS Proteinopathy: Primary screen using FUS-linked yeast assay; also: nearly all actives have a fitted effect of over 55% in size
Settings: S. cerevisiae FUS-expressing, OD600, 24 h; Potency: growth rescue; series mostly up to 76.6 µM
Procedure, shortened: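 Yeast expressing FUS under galactose induction, OD 0.005 in 2% galactose medium; compounds in a dilution series, 24 h at 30C. Growth rescue by absorbance at 600 nm; CP55940 positive control, DMSO negative.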
Potency is read from the fitted curve at half-maximal effect; tags tell the direction and shape of the fitted curve.

Row | Compound | Potency
1 | CCOC(=O)C1CCN(C(=O)C2CCCN(S(=O)(=O)c3ccc(OCC)c(Cl)c3)C2)CC1 (stereo not given) | inconclusive: 39.8 µM [activator, partial curve]
2 | O=C(c1ccc2c(c1)OCO2)c1cn(Cc2ccc(Cl)cc2)c2ccc(F)cc2c1=O | inconclusive: 50.1 µM [activator, single point]
3 | O=C(Cn1ncc2c1-c1ccccc1OC2)N1CCN(c2ccccc2)CC1 | inconclusive: 28.2 µM [activator, single point]
4 | COc1cccc2c(C)cc3nnc(SCC(=O)Nc4ccc(C)cc4)n3c12 | inactive
5 | CCc1ccc(N2Cc3ccccc3C2)cc1 | inconclusive: 0.891 µM [activator, full curve, poor fit]
6 | CCCn1c(SCC(=O)Nc2ccccc2C(=O)NC2CC2)n[nH]c1=O | inactive
7 | CCOc1ccc(N2C(=O)c3cccnc3C2Nc2ccc(OC)cc2)cc1 (stereo not given) | inconclusive: 28.2 µM [activator, partial curve, poor fit]
8 | COc1ccc(-c2cc(CCCC(=O)NCCc3ccc(OC)cc3OC)no2)cc1 | inactive
9 | COc1ccccc1CNC(=O)c1ccc2[nH]c(C)c(C)c2c1 | inactive
10 | COc1ccc(OC)c(-c2cc(C3CCN(c4ncccc4[N+](=O)[O-])CC3)[nH]n2)c1 | inconclusive: 31.6 µM [activator, single point]
11 | COc1ccc(CC(N)c2csc(NC(=O)Nc3ccccc3Oc3ccccc3)n2)cc1 (stereo not given) | inconclusive: 25.1 µM [activator, single point]
12 | Cc1ccc(C(=O)N/C(=C\c2ccc(-c3cc(Cl)ccc3Cl)o2)C(=O)NCc2cccnc2)cc1 | inconclusive: 50.1 µM [activator, single point]
13 | O=C1NC[C@@H](CCCCN2C[C@H](Cc3ccc(O)cc3)N(CCC3CCCCC3)C(=O)C2=O)N(CC2CCCCC2)C1=O | inconclusive: 11.2 µM [activator, partial curve, poor fit]
14 | CC(=O)c1c(C)[nH]c(C(=O)CSc2nnc(NC3CC3)s2)c1C | inconclusive: 28.2 µM [activator, partial curve]
15 | O=C1NC(Cc2ccccc2)c2nc3ccc(Cl)cc3c(=O)n2-c2cc3ccccc3cc21 (stereo not given) | inconclusive: 50.1 µM [activator, single point]
16 | Cc1ccc(C)c(S(=O)(=O)N2CCC3(CC2)OCCO3)c1 | inactive
17 | Cc1cc(C)c2nc(N(CCCN(C)C)C(=O)c3ccc(S(=O)(=O)N4CCCCCC4)cc3)sc2c1 | inconclusive: 35.5 µM [activator, single point]
18 | COc1ccc(-c2ocnc2C(=O)Nc2ccc(N3CCOCC3)cc2N2CCOCC2)cc1OC | inconclusive: 31.6 µM [activator, single point]
19 | Cc1ccc(CC(=O)Nc2cccc(C)n2)cc1 | inactive
20 | C#CCOCCOCCOCCNc1nc(N2CCN(C(=O)CCCCCCCCCCNC(=O)[C@@H](CCSC)n3cc(CCO)nn3)CC2)nc(N2CCN(C(=O)CCCCCCCCCCNC(=O)[C@H](CCCN=C(N)N)n3cc(C[C@@H](C)CC)nn3)CC2)n1 | active: 10 µM
21 | COc1ccc(CCNC(=O)c2ccc3c(c2)N(Cc2ccc(F)cc2)C(=O)c2ccccc2S3(=O)=O)cc1OC | inconclusive: 17.8 µM [activator, partial curve]
22 | Cc1ccc(-n2c(C)cc(C(=O)OCC(=O)N(CC(C)C)C3CCS(=O)(=O)C3)c2C)cc1 (stereo not given) | inconclusive: 35.5 µM [activator, single point]

Row | Compound | Potency
23 | CCCCn1c(SCC(=O)N2c3ccccc3CCc3ccccc32)nc2c1c(=O)n(C)c(=O)n2C | inactive
24 | COc1cc(/C=C2\SC(=S)N(CCC(=O)Nc3ccccn3)C2=O)cc(OC)c1OC | inactive
25 | Cc1ccccc1CSCCNC(=O)CCSc1ccccc1 | inactive
26 | Cc1ccccc1C(=O)N1CCN(c2ccc(NC(=O)c3ccco3)cc2Cl)CC1 | inconclusive: 35.5 µM [activator, partial curve, poor fit]
27 | COc1cc(C(C)=O)ccc1OCC(=O)Nc1ccc(Cl)c(S(=O)(=O)N2CCOCC2)c1 | inconclusive: 35.5 µM [activator, single point]
28 | COc1ccc(C(=O)/C=C/c2cn(CC(O)CN3CCc4ccccc43)c3ccccc23)cc1OC (stereo not given) | inconclusive: 35.5 µM [activator, single point]
29 | Cc1cccc(C)c1OCCOC(=O)c1n[nH]c2ccccc12 | inactive
30 | COc1ccc(NC2CCN(C3CC(=O)N(c4ccc(F)c(Cl)c4)C3=O)CC2)cc1 (stereo not given) | inconclusive: 3.55 µM [activator, partial curve, poor fit]
31 | CN=C1SC(CC(=O)Nc2ccc(C(C)=O)cc2)C(=O)N1C (stereo not given) | inconclusive: 0.891 µM [activator, full curve, poor fit]
32 | CCC1CCCCN1C(=O)Nc1cccc(NC(=O)N2CCCCC2CC)c1 (stereo not given) | inconclusive: 50.1 µM [activator, single point]
33 | COc1ccc(C2=CC(c3cc(Br)ccc3F)n3c(nc4ccccc43)N2)cc1 (stereo not given) | inactive
34 | C[C@@H]1CCCCO[C@H](CN(C)C(=O)Nc2ccc(C(F)(F)F)cc2)[C@@H](C)CN([C@H](C)CO)C(=O)c2cc(NC(=O)Nc3ccc4c(c3)OCO4)ccc2O1 | inconclusive: 35.5 µM [activator, single point]
35 | O=C(COC(=O)CCc1ccccc1)Nc1cc([N+](=O)[O-])ccc1F | inconclusive: 31.6 µM [activator, single point]
36 | COc1cccc(-c2cccc(-c3nc(C(=O)NCc4ccc(Oc5ccccc5)cc4)cc4c3[C@H](CCO)N(S(=O)C(C)(C)C)C4)c2)c1 (stereo not given in full) | inconclusive: 35.5 µM [activator, partial curve, poor fit]
37 | CCOc1ccccc1NC(=O)Cc1coc2ccc(C)cc12 | inactive
38 | C=CCNC(=O)c1ccccc1NC(=O)c1ccc(Cl)c(S(=O)(=O)Nc2ccccc2)c1 | inconclusive: 35.5 µM [activator, partial curve, poor fit]
39 | CCCN(CCC)S(=O)(=O)c1ccc(NS(=O)(=O)c2ccc(F)cc2)cc1 | inconclusive: 35.5 µM [activator, single point]
40 | COC(=O)c1ccc(C2Nc3c(C)cccc3-c3cc(C)nn32)cc1 (stereo not given) | inconclusive: 50.1 µM [activator, single point]
41 | COc1ccccc1CNc1nc2c(S(=O)(=O)c3ccc(C)c(C)c3)nnn2c2ccc(Cl)cc12 | inactive
42 | O=C(CN1C(=O)C2(OCCO2)c2ccccc21)c1ccc(Br)cc1 | inconclusive: 28.2 µM [activator, single point]
43 | CCC(C(=O)NCc1cc(OC)ccc1OC)n1nc(C)c2sc3ccccc3c2c1=O (stereo not given) | inactive
44 | CN(C)/C=C(\C#N)C(=O)c1cccc(Oc2ccc(Br)cc2)c1 | inconclusive: 12.6 µM [activator, partial curve, poor fit]

Row | Compound | Potency
45 | CC(=O)c1ccc(NC(=S)N2CCC(Cc3ccccc3)CC2)cc1 | inactive
46 | O=C(COCc1cc(-c2cccs2)on1)N1CCN(c2ccccc2)CC1 | inactive
47 | COc1ccc([C@@H]2[C@@H]3C(=O)N(C(C)(C)C)C(=O)[C@@H]3[C@]3(Cc4ccccc4)C(=O)N(c4ccccc4)C(=O)N23)cc1 | inactive
48 | COc1ccc2c(c1)C(CC(C)=O)N(c1ccc(-c3cccs3)cc1)C(c1ccsc1)=C2 (stereo not given) | inconclusive: 50.1 µM [activator, single point]
49 | O=C(CN(CCO)c1ccccc1)Nc1cccc(S(=O)(=O)N2CCCC2)c1 | inconclusive: 22.4 µM [activator, partial curve, poor fit]
50 | Cc1c(C(=O)NCc2cccnc2)oc2ccc(S(=O)(=O)N3CCCCC3)cc12 | inactive
51 | CC1CCC(NC(=O)c2ccc(N3CCCC3=O)cc2)CC1 (stereo not given) | inconclusive: 31.6 µM [activator, partial curve, poor fit]
52 | CN(C)C(=O)COc1ccc2ccc(=O)oc2c1 | inactive
53 | COc1cc(C2CC(=O)Nc3ccccc3S2)cc(OC)c1OC (stereo not given) | inactive
54 | O=C(Nc1ccnn1C1CCN(CC2CC=CCC2)CC1)c1ccccc1 (stereo not given) | inactive
55 | CCc1nc2c(OCc3cccc(Cl)c3)cccn2c1N(C)C(=O)Nc1ccccc1OC | inconclusive: 28.2 µM [activator, single point]
56 | COc1ccc2c(c1)CCCN2C(=O)C1CCCN(S(=O)(=O)c2cccc3ccccc23)C1 (stereo not given) | inconclusive: 17.8 µM [activator, partial curve, poor fit]
57 | O=C(Nc1ccccc1C(=O)OCc1cc(=O)n2c3c(sc2n1)CCCC3)c1ccc(F)cc1 | inactive
58 | COc1cc(C(=S)N2CCOCC2)cc(OC)c1OC(=O)c1ccccc1Cl | inconclusive: 35.5 µM [activator, single point]
59 | O=[N+]([O-])c1c(NCCO)cc(N2CCCCCC2)c2nonc12 | inactive
60 | CCc1ccc2nc(N(CCN(CC)CC)C(=O)c3cccs3)sc2c1 | inactive
61 | CCc1ccccc1NS(=O)(=O)c1ccc2[nH]cc(C(=O)N(CC(C)C)CC(C)C)c(=O)c2c1 | inconclusive: 31.6 µM [activator, single point]
62 | C[C@H]1[C@@H](NC(=O)Cc2ccsc2)CC[C@@]23CCCN2C(=O)CCC[C@@H]13 | inactive
63 | Cc1cccc(N2CCN(C(=O)CS(=O)(=O)c3cccc4nsnc34)CC2)c1C | inconclusive: 44.7 µM [activator, single point]
64 | COc1cc(OC)cc(C(=O)Nc2nc(-c3ccccc3)c(-c3ccccc3)o2)c1 | inactive
65 | CC1(C(=O)Nc2cccc3ccccc23)CCN1C(=O)Cc1ccc(Cl)cc1Cl (stereo not given) | inconclusive: 50.1 µM [activator, single point]
